# The RNAGym collection of RNA variant scans (doi:10.7554/elife.90254)
# The source gives no read counts; variants with many changes may rest on few reads.
# B1: OR4K15 (parent)
# chain: GUUAACGGUCAUAGGCCAUGGAAACUAGGAGCACCAUUUCGCUGCCAGUGAAGAAAUGAACAAAGAAAAUCUGGGCCAGGCAGGCAUCAAAAGAAAUAGUCUUGCGCUCAACCAGAAAGUCUGUAAUCAUUUUAAGGGUA
# Variants of: B1
# Assay: self-cleavage, relative activity (ratio to wild type); higher = more cleavage; in vitro, sequencing; the parent is a self-cleaving ribozyme
row,Variant,self-cleavage
1,GUUAACGGUCAUAGGCCAUGGAAACUAGGAGCACCAUUUCGCCGCCAGUGAAGAAAUGAACAAAGAAAAUCUGGGCCAGGCAGGCAUCAGAAGAAAUAGCCUUGCGCUCAACCAGAAAGUCUGUAAUCAUUUUAAGGGUA [U43C A90G U100C],2.9
2,GUUAACGGUCAUAGGCCAUGGAAACUAGGAGCACCAUUUCGCCGCCAGUGAAGAAAUGAACAAAGAAGAUCUGGGCCAGGCAGGCAUCAAAAGAAAUAGUCUUGCGCUCUACCAGAAAGUCUGUAAUCAUUUUAAGGGUA [U43C A68G A110U],0.53
3,GUUAACGGUCAUAGGCCAUGGAAACUAGGAGCACCAUUUCGCCGUCAGUGAAGAAAUGAACGAAGAAAAUCUGGGCCAGGCAGGCAUCAAAAGGAAUAGUCUUGCGCUCAACCGGAAAGUCUGUAAUCAUUUUAAGGGUA [U43C C45U A62G A94G A114G],0.21
4,GUUAACGGUCAUAGGCCAUGGAAACUAGGAGCACCAUUUCGCCGCCAGUGAAGAAAUGAACAAAGAAAAUCUGGGCCUGGCAGGCAUCAAAAGAAAUAGUCUUGCGCUCAACCAGAAAGUCUGUAAUCAUCUUAAGGGUG [U43C A78U U131C A140G],0.06
5,GUUAACGGUCAUAGGCCAUGGAAACUAGGAGCACCAUUUCGCCGCCAGUGAAGAAAUGAACGAAGAAAAUCUGGGCCAGGCAGGCAUCAAAAGAAAUAGUCUUGCGCUCAACCAGAAAGUCGGUGAUCAUUUUAAGGGUA [U43C A62G U122G A125G],1.45
6,GUUAACGGUCAUAGGCCAUGGAAACUAGGAGCACCAUUUCGCCGCCAGUGAAGAAAUGAACAAAGAAAGUCUGGGCCAGGCAGGCAUCAAAAGAAAUAGCCUUGCGCUCAACCAGAAAGUCCGUAGUCAUUUUAAGGGUA [U43C A69G U100C U122C A126G],1.5
7,GUUAACGGUCAUAGGCCAUGGAAACUAGGAGCACCAUUUCGCCGCCAGUGAAGAAAUGAACAAAGAAAAUCUGGGCCAGGCAGGCAUCAAAAGAAAUAGUCUUGCGCUCAGCCAGAAAGUUUGUAAUCAUUUUAAGGGUA [U43C A111G C121U],0.01
8,GUUAACGGUCAUAGGCCAUGGAAACUAGGAGCACCAUUUCGCCGCCAGUGAAGAAAUGAACAAAGAAAAUCUGGGCCAGGCAGGCAUCAAAAGAAAUAGUCUUGCGCUCAACCAGGAAGCCUGUAACCAUUUUAAGGGUA [U43C A116G U120C U127C],0.16
9,GUUAACGGUCAUAGGCCAUGGAAACUAGGAGCACCAUUUCGCCGCCAGUGAAGAAAUGAACAAAGAGAAUCUGGGCCAGGCAGGCAUCAAAAGAAAUAGUCUUGCGCUCGACCAGAAAGUCUGUAAUCAUUCUAAGGGUA [U43C A67G A110G U132C],0.05
10,GUUAACGGUCAUAGGCCAUGGAAACUAGGAGCACCAUUUCGCCGCCAGUGAAGAAAUGAUCGAAGAAAAUCUGGGCCAGGCAGCCAUCAAAAGAAAUAGUCUUGCGCUCAACCAGAAAGCCUGUAAUCGUUUUAAGGGUA [U43C A60U A62G G84C U120C A129G],0.08
11,GUUAACGGUCAUAGGCCAUGGAAACUAGGAGCACCAUUUCGCCGCCAGUGAAGAAAUGAACAAAGAAAAUCUGGGCCUGGCUGGCAUCAAAAGAAAUAGUCUUGCGCUCAACCAGAAGGUCUGUAAUCAUUUUAAGGGUA [U43C A78U A82U A118G],0.02
12,GUUAACGGUCAUAGGCCAUGGAAACUAGGAGCACCAUUUCGCCGCCAGUGAAGAAAUGAGCAAAGAAAAUCUGGGCCAGGCAGGCAUCAAAAGAAAUAGUCUUGCGCUCAACCAGAAAGUCUGUAAUCAUUUUAAGGGAA [U43C A60G U139A],1.57
13,GUUAACGGUCAUAGGCCAUGGAAACUAGGAGCACCAUUUCGCCGCCAGUGAAGAAAUGAACAAAGAAAAUCUGGGCCAGGCAGGCAUCAAAAGAAAUAGUCUUGCGCUCAACCAGACAGUCUGUAGUCAUCUUAAGGGUA [U43C A117C A126G U131C],0.16
14,GUUAACGGUCAUAGGCCAUGGAAACUAGGAGCACCAUUUCGCCGCCAGUGAAGAAAUGAACAAAGGAAAUCUGGGCCAGGCGGGCAUCAAAAGAAAUAGUCUUGCGCUCAACCAGAAAGUCUGUAAUCAUUUUAAGGGUA [U43C A66G A82G],0.39
15,GUUAACGGUCAUAGGCCAUGGAAACUAGGAGCACCAUUUCGCCGCCAGUGAAGAAAUGAGCAAAGAAAAUCUGAGCCAGGCAGGCAUCAAAAGAAAUAGUCUUGCGCUCAACCAGAAAGUCUGUAAUCAUUUUAAGGGUA [U43C A60G G74A],0.21
16,GUUAACGGUCAUAGGCCAUGGAAACUAGGAGCACCAUUUCGCCGCCAGUGAAGAAAUGAACAAAGAAAAUCUGGGCCAGGCAGGCAUCAAAAGUAAUAGUCUUGCGCUCAACCAGGAAGUCUGUAAUCAUCUUAAGGGUA [U43C A94U A116G U131C],0.22
17,GUUAACGGUCAUAGGCCAUGGAAACUAGGAGCACCAUUUCGCCGCCAGUGAAGAAAUGAACAAAGAAAAUCUGGGCCAGGCAGGCAUCAAAAGGAAUAGUCUUGCGCUCAACCAGAAAGUCUGUAAUCACUUUAAGGGUA [U43C A94G U130C],0.9
18,GUUAACGGUCAUAGGCCAUGGAAACUAGGAGCACCAUUUCGCCGCCAGUGAAGAAAUGAACAGAGAAAAUCUGGGCCAGGCAGGCAUCAAAAGAAACAGUCUUGCGCUCAACCAGAAAGUCUGUAAUCAUUUUAAGGGUA [U43C A63G U97C],1.65
19,GUUAACGGUCAUAGGCCAUGGAAACUAGGAGCACCAUUUCGCCGCCAGUGAAGAAAUGAACAAAGAAAAUCUGGGCCAGGCAGGCUUCAAAAGAAAUAGUCUCGCGCUCAACCAGAAAGUCUGUAAUCAUUUUAAGGGUA [U43C A86U U103C],1.24
20,GUUAACGGUCAUAGGCCAUGGAAACUAGGAGCACCAUUUCGCCGCCAGUGAAGAAAUGAACAAAGAAAAUCUGGGCCAGGCAGGCAUCAAAAGAAAUAGUCUUGCGCUCAACCAGAAAGUCUGUGAUCAUUUUAAGGGAA [U43C A125G U139A],0.46
21,GUUAACGGUCAUAGGCCAUGGAAACUAGGAGCACCAUUUCGCCGCCAGUGAAGAAAUGAACAAAGAAAGUCUGGGCCAGGCAGGCAUCAAAAGAAGUAGUCUUGCGCUCAACCAGAGAGUCUGUAAUCAUUAUAAGGGUA [U43C A69G A96G A117G U132A],0.87

row,Variant,self-cleavage
1,GUUAACGGUCAUAGGCCAUGGAAACUAGGAGCACCAUUUCGCCGCCAGUGAAGAAAUGAACAAAGAAAAUCUGGGCCAGGCGGGCAUCAAAAGGAAUAGUCUUGCGCUCAACCAGAAAGUCUGUAAUCAUUUUAAGGGUA [U43C A82G A94G],0.58
2,GUUAACGGUCAUAGGCCAUGGAAACUAGGAGCACCAUUUCGCCGCCAGUGAAGAAAUGAACAAGGAAAAUCUGGGCCAGGCAGGCAUCAAAAGAAAUAGUCUUGCGCUCAACCAGAAAGUCUGUAUUCAUUUUAAGGGUA [U43C A64G A126U],2.49
3,GUUAACGGUCAUAGGCCAUGGAAACUAGGAGCACCAUUUCGCCGCCAGUGAAGAAAUGAACAAAGAAAAUCUGGGCCAGGCAGGCGUCAAAAGAAAUAGUCUCGCGCUCAACCAGAAAGUCUGUAAUCAUUUUAAGGGUA [U43C A86G U103C],0.34
4,GUUAACGGUCAUAGGCCAUGGAAACUAGGAGCACCAUUUCGCCGCCAGUGAAGAAAUGAACAAAGAGAGUCUGGGCCAGGCAGGCAUCAAAAGAAAUAGCCUUGCGCUCAACCAGAAAGUCUGUAAUCAUUUUAAGGGUA [U43C A67G A69G U100C],2.16
5,GUUAACGGUCAUAGGCCAUGGAAACUAGGAGCACCAUUUCGCCGCCAGUGAAGAAAUGAACAAAGAGAAUCUGGGCCAGGCAGGCAUCAAAAGAAAUAGUCUUGCGCUCAACCAGAAGGUCUGUAAUCAUUCUAAGGGUA [U43C A67G A118G U132C],0.44
6,GUUAACGGUCAUAGGCCAUGGAAACUAGGAGCACCAUUUCGCCGCCAGUGAAGAAAUGAACAAAGAUAAUCUGGGCCAGGCAGGCAUCAAAAGAAAUAGUCUUGCGCUCAACCAGAAAGUCUGUAGUCAUUUUAAGGGUA [U43C A67U A126G],0.64
7,GUUAACGGUCAUAGGCCAUGGAAACUAGGAGCACCAUUUCGCCGCCAGUGAAGAAAUGAACAAAGAAAAUCUGGGCCAGGCAGGCAUCAAGAGAAAUAGUCUUGCGCUCAACCAGAAAGUCUGUGAUCAUUUUAAGGGUA [U43C A91G A125G],0.15
8,GUUAACGGUCAUAGGCCAUGGAAACUAGGAGCACCAUUUCGCCGCCAGUGAAGAAAUGAACAAAGAAAAUCUGGGCCAGGCAGGCAUCAAAAGAAAUAGUCUUGCGCUCAACCGGGAAGUCUGUAAUCAUUUUAAGGGCA [U43C A114G A116G U139C],0.03
9,GUUAACGGUCAUAGGCCAUGGAAACUAGGAGCACCAUUUCGCCGCCAGUGAAGAAAUGAACGAAGAAAAUCUGGGCCAGGCAGGCAUCAGAAGAAAUAGUCUUGCGCUCAACCAGAAAGUCUGUAAUCAUUUUAAGGGUA [U43C A62G A90G],1.29
10,GUUAACGGUCAUAGGCCAUGGAAACUAGGAGCACCAUUUCGCCGCCAGUGAAGAAAUGAAUAAGGAAAAUCUGGGCCAGGCAGGCAUCAAAAGAAAUAGUCUUGCGCUCAACCAGAAAGUCUGUAAUCAUUAUAAGGGUA [U43C C61U A64G U132A],1.55
11,GUUAACGGUCAUAGGCCAUGGAAACUAGGAGCACCAUUUCGCCGCCAGUGAAGAAAUGAACAAGGAAGAUCUGGGCCAGGCUGGCAUCAAAAGAAUUAGUCUUGCGCUCAACCAGAAAGUCUGUAAUCAUUUUAAGGGUA [U43C A64G A68G A82U A96U],0.12
12,GUUAACGGUCAUAGGCCAUGGAAACUAGGAGCACCAUUUCGCCGCCAGUGAAGAAAUGAACAAAGAAAAUCUGGGCCAGGCAGGCAUCAAGAGAAAUAGUCCUGCGCUCAACCAGAAAGUCUGUAAUCAUUUUAAGGGUA [U43C A91G U102C],1.66
13,GUUAACGGUCAUAGGCCAUGGAAACUAGGAGCACCAUUUCGCCGCCAGUGAAGAAAUGAACAAAGAAAAUCUGGGCCAGGCAGGCAUCAAGAGAAAUAGCCUAGCGCUCAACCAGAAAGUCUGUAAUCACUUUAAGGGUA [U43C A91G U100C U103A U130C],1.35
14,GUUAACGGUCAUAGGCCAUGGAAACUAGGAGCACCAUUUCGCCGCCAGUGAAGAAAUGAACAAAGAAAAUCUGGGCCAGGCAGGCAUCAAAAGCAAUAGUCUUGCGCUCAACCAGAAAGUCCGUAAUCAUUUUAAGGGUA [U43C A94C U122C],1.46
15,GUUAACGGUCAUAGGCCAUGGAAACUAGGAGCACCAUUUCGCCGCCAGUGAAGAAAUGAACAAAGAAUAUCUGGGCCAGGCAGGCAUCAAAAGAAAUAGUCUUGAGCUCAACAAGAAAGUCUGUAAUCAUUUUAAGGGUA [U43C A68U C105A C113A],0.01
16,GUUAACGGUCAUAGGCCAUGGAAACUAGGAGCACCAUUUCGCCGCUAGUGAAGAAAUGGACGAAGAAAAUCUGGGCCAGGCAGGCAUCAAAAGAAAUAGUCUUGCGCUCAACCGGAAAGUCUGUAAUCAUUUUAAGGGUA [U43C C46U A59G A62G A114G],0.35
17,GUUAACGGUCAUAGGCCAUGGAAACUAGGAGCACCAUUUCGCCGCCAGUGAAGAAAUGAACAAAGAAAAUCUGGGCCUGGCAUGCAUCAAAAGAAAUAGUCUUGCGCUCAACCAGUAAGUCUGUAAUCAUUUUAAGGGUA [U43C A78U G83U A116U],0.03
18,GUUAACGGUCAUAGGCCAUGGAAACUAGGAGCACCAUUUCGCCGCCAGUGAAGAAAUGAGCAAAGAAAAUCUGGGCCAGGCAGGCAUCAAGAGAAAUAGUCUUGCGCUCAACCAGAAAGUCUGUAAUCACUUUAAGGGUA [U43C A60G A91G U130C],0.28
19,GUUAACGGUCAUAGGCCAUGGAAACUAGGAGCACCAUUUCGCCGCCAGUGAAGAAAUGAGCAAAGAAAAUCUGGGCCAGGCAGGCAUCAAAAGAAAUAGUCUUGCGCUCAACCAGAAAGUCUGUAAUCAUUUUAGGGGUA [U43C A60G A135G],0.86
20,GUUAACGGUCAUAGGCCAUGGAAACUAGGAGCACCAUUUCGCCGCCAGUGAAGAAAUGAACAAAGAAGAUCUGGGCCAGGCAGGCAUCUAAAGAAAUAGUCUUGCGCUCAACCAGAAAGUCUGUAAUCAUCUUAAGGGUA [U43C A68G A89U U131C],0.84
